This is one part of the list.
target: T1, OsWOX13 (Oryza sativa, UniProt Q5QMM3 1-267); experiment: protein-binding microarray (RPBM); PBS, 2% BSA, 51.3 ng/ul salmon testes DNA, 50 uM zinc acetate, 200 nM TF, 25 C, 1 h; high values mean tight binding; conditions: protein: recombinant; tags: N-terminal polyhistidine and DsRed monomer fusion (pET32a); label: CyDye5-dUTP incorporated in the synthesized complementary strand; 3' TTTTT single-stranded linker to array surface; dsDNA, one strand shown
T1 sequence: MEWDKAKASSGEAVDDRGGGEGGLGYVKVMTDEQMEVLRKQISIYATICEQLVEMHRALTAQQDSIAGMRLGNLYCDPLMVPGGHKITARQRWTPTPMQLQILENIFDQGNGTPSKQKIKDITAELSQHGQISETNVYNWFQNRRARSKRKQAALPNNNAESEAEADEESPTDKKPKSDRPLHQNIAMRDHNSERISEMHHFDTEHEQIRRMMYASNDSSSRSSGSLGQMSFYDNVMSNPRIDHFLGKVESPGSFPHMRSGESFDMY
In short: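 An Axon 4000B scanner gave the binding signal as per-feature fluorescence intensity in arbitrary units. This followed washing of a custom Agilent array that had been incubated for 1 h at 25 °C with 200 nM protein in PBS, 2% BSA, salmon testes DNA and 50 µM zinc acetate. The proteins were transcription factors fused at the N-terminus to polyhistidine and DsRed, expressed in E. coli BL21-CodonPlus and purified on Ni–NTA.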

Sequence | binding signal
CCAGATTGTTAGGTTCTCTCGAATTCACTCAAATAGCACACGGAGTCACCTAGTGCAG | 3970 fluorescence intensity (a.u.)
AACTGCGCCATGACTAACACTAATTAACTAAACCCTCCATCGGAGTCACCTAGTGCAG | 3980 fluorescence intensity (a.u.)
GTACGATTCCAATTAAATGACTATATCAGAAAACCCTCTCCGGAGTCACCTAGTGCAG | 6210 fluorescence intensity (a.u.)
AGAGATCGAGATTGACACACAACGTGGTTCACGCGTGCGCCGGAGTCACCTAGTGCAG | 23100 fluorescence intensity (a.u.)
AACTTATAATTTAGAGCTCTATCAAACATATCCTACATGTCGGAGTCACCTAGTGCAG | 5490 fluorescence intensity (a.u.)
CATGGACTGACGGGGATTACATTGATAAGCACTTCGCATACGGAGTCACCTAGTGCAG | 8580 fluorescence intensity (a.u.)
TATCAGCTAAATTATTTATTTTCAACCAAATTTGATTTTACGGAGTCACCTAGTGCAG | 3670 fluorescence intensity (a.u.)
CCAATTAACTTTCTCAACACAAAGCAAGCACAAGCCAGCTCGGAGTCACCTAGTGCAG | 3230 fluorescence intensity (a.u.)
GAGCTTAAATTTACTTGATGTGAATTTAACATTTTGTGTACGGAGTCACCTAGTGCAG | 7270 fluorescence intensity (a.u.)
TTTTAAATTACCTGTAGTCTGAACTCTTATGTTGACTTTGCGGAGTCACCTAGTGCAG | 10500 fluorescence intensity (a.u.)
TCTAATTTATTATAACTTAAAATTACTACGATTTAATTGTCGGAGTCACCTAGTGCAG | 34500 fluorescence intensity (a.u.)
CAAGACAGTTAAATTACACCAGTTTAAATAGTTCGAGGGTCGGAGTCACCTAGTGCAG | 10300 fluorescence intensity (a.u.)
TTTCGTCCATAGACTGATAATGATTGTGAAACAGAGGAAGCGGAGTCACCTAGTGCAG | 8800 fluorescence intensity (a.u.)
GGCAACACAGGACAGATTGATGTGGCTTTGGCACCAATCACGGAGTCACCTAGTGCAG | 9940 fluorescence intensity (a.u.)
TGTTAAATTTACTGGATTTGGGCCGTAGCTTTAATGTGGGCGGAGTCACCTAGTGCAG | 18100 fluorescence intensity (a.u.)
TTTAATTAATTTGTTAAATTTTCTGATCGGAATGAGCGGTCGGAGTCACCTAGTGCAG | 63700 fluorescence intensity (a.u.)
AGAGATTGGAGGGTATTATTTGGATTAGTGATGCAAATACCGGAGTCACCTAGTGCAG | 12400 fluorescence intensity (a.u.)
TGAATGATTGCTTGGTCACATTTATTGAGCGTGAGATGTTCGGAGTCACCTAGTGCAG | 39600 fluorescence intensity (a.u.)
TGCCATTCATTTATTGATGAAAATGAGTGAAACTTAGACACGGAGTCACCTAGTGCAG | 6730 fluorescence intensity (a.u.)
GTATTGACAGAACAAATGTAGAACTGGTAGGAGCTTGGCGCGGAGTCACCTAGTGCAG | 17300 fluorescence intensity (a.u.)
TATCAATGATAATCATGATGATGGAGCATCATATCTACTACGGAGTCACCTAGTGCAG | 10000 fluorescence intensity (a.u.)

Sequence | binding signal
TTATAGTGCCACTCATAATCAATTATTAATCGATTTAAAGCGGAGTCACCTAGTGCAG | 3620 fluorescence intensity (a.u.)
ACTCACAGCTTAATTACAAATGTAAAATATGTGCATGTTTCGGAGTCACCTAGTGCAG | 5380 fluorescence intensity (a.u.)
TTATGATTGTAAGGGTTACAGTTCTGTGACTAACCATGTACGGAGTCACCTAGTGCAG | 30800 fluorescence intensity (a.u.)
TCACCCCTTCTAATTAATTAATATTATGTCATTTTCTAATCGGAGTCACCTAGTGCAG | 10500 fluorescence intensity (a.u.)
GGTGGCGGGCGGAGGCGGGAGGGAGGTGACATGGATGGTCCGGAGTCACCTAGTGCAG | 5580 fluorescence intensity (a.u.)
GATCAAATTTACGAAAGTTATCTATCTAGACTCGTTATTTCGGAGTCACCTAGTGCAG | 3320 fluorescence intensity (a.u.)
CTGATTACTGGATAATCATGTTTTATAGTAAACAAATTGGCGGAGTCACCTAGTGCAG | 29400 fluorescence intensity (a.u.)
TTGATTGATCTTTGGTTGGATGGATGCTTGATGATGTGCTCGGAGTCACCTAGTGCAG | 31900 fluorescence intensity (a.u.)
CAAATTGAAGTGCATTATTAGTGCTACCGTGCTAGAAAGACGGAGTCACCTAGTGCAG | 4280 fluorescence intensity (a.u.)
AAAATAAATAAATAAATTTGGTAACATTGATTAATTAGGACGGAGTCACCTAGTGCAG | 21200 fluorescence intensity (a.u.)
ATGATGGATTTCCTTAACATGTACAGGAAACATCCGTATACGGAGTCACCTAGTGCAG | 5260 fluorescence intensity (a.u.)
CCCAATTAAATAATGCCAATTGGGTTTGATCTAATGCTGGCGGAGTCACCTAGTGCAG | 15200 fluorescence intensity (a.u.)
TCTTAATTTTGTTGTAATTTGTAAGCAAGATTTTAACTTTCGGAGTCACCTAGTGCAG | 14000 fluorescence intensity (a.u.)
CACATGTTATTAATTTATTATTCAAATAAACTATGCTGTCCGGAGTCACCTAGTGCAG | 8780 fluorescence intensity (a.u.)
GACGACTTAATTAGACTCAAAATATTCGTCTCGCGGTTTCCGGAGTCACCTAGTGCAG | 16000 fluorescence intensity (a.u.)
GAATAAATCATTTGTAAAGCCAATTGTTCATCACAAATATCGGAGTCACCTAGTGCAG | 5700 fluorescence intensity (a.u.)
GATGACGGAACGAAATTACAGTTTGGATGTTTTCTTGTTCCGGAGTCACCTAGTGCAG | 7720 fluorescence intensity (a.u.)
GGTAGGAGGGTTATTGATTAATGATATAGCAAAGAATCATCGGAGTCACCTAGTGCAG | 5090 fluorescence intensity (a.u.)
ATAACATGATGAGTTCCAGCACTAGACTTGCTGATCTGTTCGGAGTCACCTAGTGCAG | 4250 fluorescence intensity (a.u.)
TTCAAATTTCAATTTGATTTATCATATATGAAACAATATTCGGAGTCACCTAGTGCAG | 4000 fluorescence intensity (a.u.)
ATGGGTGGCAAGATTGACGAACTGGACATTGCAAAACTGACGGAGTCACCTAGTGCAG | 5700 fluorescence intensity (a.u.)

Sequence | binding signal
GATAATTTGTTTGTATGTGTGTAGCTATACTAATTAGACCCGGAGTCACCTAGTGCAG | 35000 fluorescence intensity (a.u.)
AAAATTTGACAGATATAATTATAGTACAATTTTACTGTAACGGAGTCACCTAGTGCAG | 30300 fluorescence intensity (a.u.)
AATGATTTTCGTATACAAATATGGTTTCACAAACCGTGTACGGAGTCACCTAGTGCAG | 13700 fluorescence intensity (a.u.)
GGAGATAATATAATCCAATCAGAAAGTTCATTATTTCAGGCGGAGTCACCTAGTGCAG | 9680 fluorescence intensity (a.u.)
CTTAATAACTTTCTCGGATTTAATGTGTGACTCACCATTCCGGAGTCACCTAGTGCAG | 3340 fluorescence intensity (a.u.)
TCCCATTAATTATTCCAACTTTGAAACGTAGGCACATCGACGGAGTCACCTAGTGCAG | 14100 fluorescence intensity (a.u.)
TTAAGTGATCAAATTAAGTTATCTCCTGATGACTTTGCAACGGAGTCACCTAGTGCAG | 12500 fluorescence intensity (a.u.)
GTATACTAATCAAGGTTATCATAAGTTAAGGTAGTGGATTCGGAGTCACCTAGTGCAG | 5770 fluorescence intensity (a.u.)
AAGTAATTTGAAAGGGGCTGTAAATTGTACATTAACTTTGCGGAGTCACCTAGTGCAG | 16600 fluorescence intensity (a.u.)
ACTAAACAGAAAACACAAACTATATGAAAGCAGGCCCTACCGGAGTCACCTAGTGCAG | 5910 fluorescence intensity (a.u.)
GAATTAGATAGAAGAGGGTTGTGATTGGATGAGAAATGATCGGAGTCACCTAGTGCAG | 10800 fluorescence intensity (a.u.)
GTTCTTCTTAATGAAGTTAATTTACATGTGTATTTTGACCCGGAGTCACCTAGTGCAG | 7650 fluorescence intensity (a.u.)
TAAAATTGCATGTGATCATTTTGTAAGCTAAACTTTTATTCGGAGTCACCTAGTGCAG | 11600 fluorescence intensity (a.u.)
CATCAGTAATTGAGCGCCGCGGCGGCGGAGGCGGGCGAGGCGGAGTCACCTAGTGCAG | 10500 fluorescence intensity (a.u.)
TTAATGATTAGTATGTAGTATATAGTTAACTATTCTAGAGCGGAGTCACCTAGTGCAG | 29300 fluorescence intensity (a.u.)
TTTCAAGAGATTAATTAATTTTCTCAACTTTGCAAGGGCACGGAGTCACCTAGTGCAG | 16000 fluorescence intensity (a.u.)
CTGAAATTTCCAATCATCTTGCGTGTGCAAGACAGCAAAGCGGAGTCACCTAGTGCAG | 41100 fluorescence intensity (a.u.)
GCCTACCAATCTAATCCAGTACTACAAACAAAGTCAAACACGGAGTCACCTAGTGCAG | 3780 fluorescence intensity (a.u.)
TAGACTTATTTAGACTGGGAGATGAATCAGTGTGGCCCACCGGAGTCACCTAGTGCAG | 3430 fluorescence intensity (a.u.)
GATAAATTGTTACTCCACCACTCTACAGATTATATTTAAACGGAGTCACCTAGTGCAG | 6740 fluorescence intensity (a.u.)
AGCAAACTAACTGTTAAACTTCCTGTATAAATATGCATGGCGGAGTCACCTAGTGCAG | 4330 fluorescence intensity (a.u.)

Sequence | binding signal
TAATTCCAAATTAATTTAAATGCGCTATTTGCTTAACCAGCGGAGTCACCTAGTGCAG | 18000 fluorescence intensity (a.u.)
CGTGATGGGACATTACCTAGTACTACGATAATGTCTCATCCGGAGTCACCTAGTGCAG | 4830 fluorescence intensity (a.u.)
AGAAAATAAAATTGATCAAACAAATCCTCAGGTTAAGGATCGGAGTCACCTAGTGCAG | 5480 fluorescence intensity (a.u.)
TGATTTGATTTGTTGTCTGCTCGTCTGCTGCGAAGATCAACGGAGTCACCTAGTGCAG | 26400 fluorescence intensity (a.u.)
TTATAAAATATAATTTATCTGTTATATGTTACATGGAATACGGAGTCACCTAGTGCAG | 7650 fluorescence intensity (a.u.)
AAAAGGATCCTCAAAGTTTATGGTATTTGTTGTATGACATCGGAGTCACCTAGTGCAG | 7860 fluorescence intensity (a.u.)
AAGTAGAGTGACAATTATATCTGATATGGGATGTTTTATGCGGAGTCACCTAGTGCAG | 7650 fluorescence intensity (a.u.)
CCTAACATAATTTAAAGTGTTAATTGGATACATGTCACTGCGGAGTCACCTAGTGCAG | 50900 fluorescence intensity (a.u.)
CATAAGCAGTAATTACGGAGTACCGTACAAGTTTAGAGTCCGGAGTCACCTAGTGCAG | 3190 fluorescence intensity (a.u.)
TCGATAATTCCGAGGGATTAGTCGATGATTCAGAGGAGCTCGGAGTCACCTAGTGCAG | 3920 fluorescence intensity (a.u.)
GTAACACAGATTAATCATCCACAGATTAAACAAAGGAGAACGGAGTCACCTAGTGCAG | 6610 fluorescence intensity (a.u.)
CTTCATCATTCTGTTATGATCATCTAAATTTTGTACTCCACGGAGTCACCTAGTGCAG | 3260 fluorescence intensity (a.u.)
ATATATATATATATATATATATTCATTAACATCAATATGTCGGAGTCACCTAGTGCAG | 26300 fluorescence intensity (a.u.)
ACGAAACTGGTCCTAAACTGGAGCAGCAGTCACGGATAAACGGAGTCACCTAGTGCAG | 5320 fluorescence intensity (a.u.)
AGTATGATTATAGAAATGGACGTTTCAGATTTGTTTACGTCGGAGTCACCTAGTGCAG | 31100 fluorescence intensity (a.u.)
TGGTCATGTTTATTTGATTATTACTTTCTCAGGTTTGGACCGGAGTCACCTAGTGCAG | 5200 fluorescence intensity (a.u.)
TTTCTGATGATTGCATGCACGTCTTGCTGGCTCATCCATGCGGAGTCACCTAGTGCAG | 27000 fluorescence intensity (a.u.)
GTTTATAATTAGATCGCATAAAACACTACTCACTATGTCCCGGAGTCACCTAGTGCAG | 7950 fluorescence intensity (a.u.)
ACCAAATTAAACCTCATCAGATCGGACGGTGGCAGGGCTCCGGAGTCACCTAGTGCAG | 12100 fluorescence intensity (a.u.)
TTAGTTAAATTACACCACTCAATTATGTTTAGCATTTAACCGGAGTCACCTAGTGCAG | 12200 fluorescence intensity (a.u.)
TAAAATTTGACTTTAAAATTTAAATCGAAAATTTTCAAATCGGAGTCACCTAGTGCAG | 5460 fluorescence intensity (a.u.)

Reference: publication PMC7819943, “Rice protein-binding microarrays: a tool to detect cis-acting elements near promoter regions in rice”
